Test results published in paper PMC4336329 (PLoS ONE, 2015).
In all, about 310,000 compounds went through this assay and about 2,200 (0.71%) showed an effect of 50% or more. The effect is printed as a negative number. The list shows a part of the results.

The compounds below were run against human ether-à-go-go-related gene (hERG) potassium channel (human, UniProt Q12809) (assay: primary screen, population patch clamp on CHO cells stably expressing hERG).
Chain of human ether-à-go-go-related gene (hERG) potassium channel (Q12809 whole entry, looked up): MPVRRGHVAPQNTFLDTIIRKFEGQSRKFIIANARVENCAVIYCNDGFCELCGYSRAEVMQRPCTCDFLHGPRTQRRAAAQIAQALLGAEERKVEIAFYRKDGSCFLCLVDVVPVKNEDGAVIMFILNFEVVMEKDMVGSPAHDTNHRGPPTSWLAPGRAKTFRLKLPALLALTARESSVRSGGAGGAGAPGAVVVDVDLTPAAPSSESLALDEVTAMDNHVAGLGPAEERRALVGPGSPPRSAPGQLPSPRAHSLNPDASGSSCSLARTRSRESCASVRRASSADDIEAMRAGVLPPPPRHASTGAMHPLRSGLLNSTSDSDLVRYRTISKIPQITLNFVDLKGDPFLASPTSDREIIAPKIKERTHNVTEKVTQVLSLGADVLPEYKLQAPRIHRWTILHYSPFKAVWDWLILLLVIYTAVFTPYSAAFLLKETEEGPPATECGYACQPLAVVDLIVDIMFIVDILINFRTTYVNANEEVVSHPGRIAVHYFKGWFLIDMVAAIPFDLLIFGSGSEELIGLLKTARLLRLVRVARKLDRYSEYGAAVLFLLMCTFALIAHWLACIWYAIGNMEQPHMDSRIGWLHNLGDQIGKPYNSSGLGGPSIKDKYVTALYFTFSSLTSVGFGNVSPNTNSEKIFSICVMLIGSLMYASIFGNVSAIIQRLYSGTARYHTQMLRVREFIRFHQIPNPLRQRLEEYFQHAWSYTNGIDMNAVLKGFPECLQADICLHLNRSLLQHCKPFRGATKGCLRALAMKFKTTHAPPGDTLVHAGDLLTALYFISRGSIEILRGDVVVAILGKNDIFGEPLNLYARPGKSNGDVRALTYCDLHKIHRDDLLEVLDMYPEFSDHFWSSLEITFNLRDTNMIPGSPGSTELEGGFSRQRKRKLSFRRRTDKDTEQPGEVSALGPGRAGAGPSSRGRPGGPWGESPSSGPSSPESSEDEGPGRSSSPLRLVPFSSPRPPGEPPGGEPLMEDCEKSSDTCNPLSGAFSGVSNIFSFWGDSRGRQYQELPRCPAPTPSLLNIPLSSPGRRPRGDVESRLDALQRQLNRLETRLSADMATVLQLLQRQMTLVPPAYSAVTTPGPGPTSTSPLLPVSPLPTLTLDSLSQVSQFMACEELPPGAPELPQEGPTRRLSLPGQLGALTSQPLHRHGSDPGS

In order of falling “hERG current change (%, negative = inhibition) at 1uM” value:
1. O=C(NCCC1=CCCCC1)C(=O)c1c[nH]c2ccccc12  21.9%
2. COc1ccc(S(=O)(=O)N2CCCC2)cc1C(=O)O  19.4%
3. COc1ccc(N/C=C\C(=O)c2ccc(C)cc2)cc1OC  19.2%
4. Cc1ccc(-c2ccc(=O)n(Cc3cccc(Br)c3)n2)cc1  17.9%
5. COc1cc(OC)cc(C(=O)NCCCNC(=O)c2ccccn2)c1  16%
6. COCCNC(=O)c1cn(C)c(=O)c2cc(OC)c(OC)cc12  15.5%
7. COC(=O)CC1C(=O)NCCN1C(=O)c1ccc2oc(C(C)C)nc2c1 (centres unmarked)  14.8%
8. COc1ccc(C(=O)N2CCN(C(C)=O)CC2)cc1S(=O)(=O)N1CCOCC1  14.4%
9. NNc1nc(-c2ccccc2Cl)nc2ccccc12  14.4%
10. Cc1ccc(CCNC(=O)c2ccc3nc4ccccc4c(=O)n3c2)cc1  14.3%
11. COc1ccc(-c2nnc(SCC(=O)Nc3sc4c(c3C#N)CCCC4)n2-c2ccccc2)cc1  13.9%
12. O=C(O)CC(CC(=O)Nc1ccc(-c2ccccc2)cc1)c1ccccc1 (centres unmarked)  13%
13. COc1ccc2c(/C=N/Nc3ccc(C(=O)O)cc3)c[nH]c2c1  12.7%
14. CC(NC(=O)COc1ccccc1Cl)c1ccccc1 (centres unmarked)  12.4%
15. COc1ccc(NC(=S)N/N=C/c2cccn2Cc2ccc(F)cc2Cl)cc1  11.1%
16. CC(=O)Nc1nnc(CCN(CCc2nnc(NC(C)=O)s2)[N+](=O)[O-])s1  10.8%
17. CCC(=O)Nc1sc(Cc2ccccc2)c(C)c1C(N)=O  9.28%
18. CCN(CC)S(=O)(=O)c1ccc2oc(C(=O)NCCCN3CCOCC3)c(C)c2c1  9.23%
19. COC(=O)C1=C(C(=O)OC)[C@@H]2Nc3ccccc3[C@@]23C[C@@H](C(=O)OC)N(C(=O)C2CCC2)C3=N1  9.05%
20. Cc1onc(-c2c(F)cccc2Cl)c1C(=O)NCCc1ccncc1  8.41%
21. COc1ccc(NC(=O)c2cccc(S(=O)(=O)NCc3ccco3)c2)c(OC)c1  8.14%
22. O=C(O)C(=O)O.OC(CNCC(c1ccco1)N1CCCCC1)c1ccccc1 (centres unmarked)  8.11%
23. CCCN(CCC)Cc1c(C(=O)N/N=C/C(C)=C\c2ccco2)nnn1-c1nonc1N  7.94%
24. CCC(c1nnnn1CCOC)N(Cc1cc2cc(C)c(C)cc2[nH]c1=O)CC1CCCO1 (centres unmarked)  7.8%
25. CC(C)(C)c1cc(NC(=O)COc2ccc(Br)cc2)n(-c2ccccc2)n1  7.76%
26. CC(C)(C)OC(=O)N/N=C/c1c[nH]c2ccccc12  7.74%
27. COc1ccc(-c2nc(CN3CCC(C(=O)NC4CC4)CC3)c(C)o2)cc1OC  7.74%
28. COc1ccc(CC(=O)Nc2cccc(-c3nnc(-c4ccc(C)cc4)o3)c2)cc1OC  7.69%
29. CCc1ccc(NC(=O)CSCCO)cc1  7.59%
30. O=C(NCCc1ccccc1)/C(=N\O)c1ccccc1  7.55%
31. COc1cc(C(O)CN)ccc1O.Cl (centres unmarked)  7.49%
32. CCOc1cc(C(=S)N2CCCCC2)ccc1OS(=O)(=O)c1ccc(Cl)cc1  6.25%
33. Cc1cc(C)n(CCC(=O)Nc2cccc(F)c2)n1  6.01%
34. O=C(Nc1nc2c(Cl)ccc(Cl)c2s1)C1CC1  5.76%
35. CCC1CCCCN1Cc1nc2c(c(=O)n(C)c(=O)n2C)n1CCC(C)C (centres unmarked)  5.24%
36. O=C(Nc1cccc(-c2cnc3ccccc3n2)c1)c1ccccc1  5.07%
37. O=C(O)CCCC(=O)N1CCC(C(O)(c2ccccc2)c2ccccc2)CC1  4.99%
38. O=C1CCCC(O)=C1N=Nc1ccc2ncsc2c1  4.98%
39. CCn1c(=O)c(C(=O)NCc2ccccc2Cl)c(O)c2ccccc21  4.93%
40. COc1cccc2c1C(=O)c1c(O)c3c(c(O)c1C2=O)C[C@](O)(C(C)=O)C[C@H]3O[C@@H]1C[C@@H](N)[C@@H](O)[C@@H](C)O1.Cl  4.93%
41. COc1ccc([N+](=O)[O-])cc1NC(=O)CSCc1ccccc1C  3.97%
42. O=C(Nc1ccc(N2CCN(C(=O)c3cccs3)CC2)cc1)c1cccnc1Cl  3.47%
43. C=Cn1c(P(=S)(N2CCOCC2)N2CCOCC2)cc2c1CCCC2  2.78%
44. C=CCSC1=N/C(=C\c2cc(OCC)c(OC(C)=O)c([N+](=O)[O-])c2)C(=O)S1  2.71%
45. NC(=O)CC(NC(=O)c1cccc(Br)c1)c1ccc(NCC2CC2)c([N+](=O)[O-])c1 (centres unmarked)  1.58%
46. Nc1ccc(C(=O)N2N=C(c3ccccc3)CC2(O)C(F)(F)F)cc1 (centres unmarked)  0.981%
47. O=C(Cc1ccc(S(=O)(=O)N2CCOCC2)s1)N1CCN(c2cccc(C(F)(F)F)c2)CC1  0.747%
48. O=C(Cc1cccs1)Nc1nnc(COc2ccccc2)s1  0.693%
49. CCOc1ccc(CNC(=S)N/N=C/c2ccc(OC)c(OC)c2)cc1  -1.05%
50. COc1ccc(C2C(C#N)=C(N)Oc3n[nH]c(C)c32)cc1Cn1nnc2ccccc21 (centres unmarked)  -1.44%
51. CN1CCc2c(sc(NC(=O)c3cc(Cl)sc3Cl)c2C(N)=O)C1.Cl  -3.99%
52. Nc1cc(Cl)ccc1Oc1ccc2ccccc2c1  -4.96%
53. Cc1ccc(NC(=O)CSc2nc(=O)cc(N)n2CCc2ccccc2)cc1  -6.64%
54. N#Cc1ccc(CSc2nnc(-c3cnccn3)o2)cc1  -8.11%
55. C=CCN1C(=O)C(Cc2ccc(F)cc2)S/C1=N/N=C/c1cccs1 (centres unmarked)  -8.59%
56. Cc1ccc(-c2noc(CCC(=O)NCCN3CCN(Cc4ccccc4)CC3)n2)cc1  -15.1%
